Results on four compounds are retold here after PubChem BioAssay (NCI).

The subject of the assay is NCI-H322M lung. The experiment in a line: NCI-60 cell line screen, 48 h.

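Where inhibition never reached the appropriate level, the endpoint shown equals the highest concentration tested. Otherwise, values were interpolated linearly from a five-concentration, 48-hour dose response in 96-well plates. GI50 marks 50% less growth. TGI: concentration producing complete growth inhibition.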

For the compound `CC(C)c1sc(NC(=O)c2cc(NC(=O)c3cc(NC(=O)c4cscn4)cn3C)cn2C)nc1C(=O)NCCCN(C)C`, the GI50 is 3.66 µM and the TGI came to 15.4 µM.

As to `CNC(=O)c1cccc(NC(=O)c2ccc3c(c2)nnn3/C(C#N)=C/c2ccccn2)c1`, the GI50 was 19.4 µM and the TGI turned out to be 47.6 µM.

On to `C=C1CC[C@@H]2[C@]3(C)COC(c4cn(-c5ccccc5)nc4-c4ccccc4)O[C@@H]3CC[C@@]2(C)[C@@H]1C/C=C1/C(=O)OC[C@H]1O` (stereo partly drawn), for which the GI50 is 3.35 µM and the TGI was found to be 14 µM.

`CC[C@]12C=CCN3CC[C@@]4(c5ccc(OC)cc5N(C)[C@H]4[C@@](O)(C(=O)OC)[C@@H]1OC(=O)CCC[P+](c1ccc(C)cc1)(c1ccc(C)cc1)c1ccc(C)cc1)[C@@H]32`: the GI50 is 0.649 µM and the TGI turned out to be 1.95 µM.
